Experimental data published in PubChem BioAssay AID588342 (National Center for Advancing Translational Sciences (NCATS), 2011).
The campaign covered roughly 360,000 compounds. About 25,000 (6.9%) were called active. The shares of active, inactive and inconclusive entries below differ from those in the screen. Calls follow the shape of the dose curve; as a rule, active = well fitted inhibition curve with a large enough effect; inconclusive = small, poorly fitted or top-dose-only effect; inactive = flat fitted curve, though single readings scatter. Potencies beside an inconclusive call are fits to weak or partial responses and may not hold up.

Biological target: Luciferin 4-monooxygenase (Photinus pyralis) (UniProt P08659)
Chain of UniProt P08659 (P08659 whole entry, looked up): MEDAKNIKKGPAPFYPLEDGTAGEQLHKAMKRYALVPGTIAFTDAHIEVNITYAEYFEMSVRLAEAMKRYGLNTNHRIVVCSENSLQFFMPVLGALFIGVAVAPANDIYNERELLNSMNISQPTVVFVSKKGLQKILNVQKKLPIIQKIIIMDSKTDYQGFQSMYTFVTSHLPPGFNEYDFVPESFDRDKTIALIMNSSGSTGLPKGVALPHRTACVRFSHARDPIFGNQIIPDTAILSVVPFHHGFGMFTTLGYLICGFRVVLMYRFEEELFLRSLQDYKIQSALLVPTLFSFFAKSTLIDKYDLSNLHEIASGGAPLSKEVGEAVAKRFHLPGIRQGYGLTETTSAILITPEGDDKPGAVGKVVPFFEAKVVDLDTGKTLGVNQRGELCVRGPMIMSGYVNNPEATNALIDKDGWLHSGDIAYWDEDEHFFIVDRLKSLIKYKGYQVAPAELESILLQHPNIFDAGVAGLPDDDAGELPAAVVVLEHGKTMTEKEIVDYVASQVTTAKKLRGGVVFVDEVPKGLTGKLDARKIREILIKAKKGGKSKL
Assay: qHTS profiling assay for firefly luciferase inhibitor/activator using purifed enzyme and Km concentrations of substrates (counterscreen for miR-21 project); also: nearly all actives have a fitted effect of over 55% in size;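 as to activity change, negative = inhibition: plate controls were vehicle for no effect and reference inhibitor for full effect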
Conditions: purified FLuc, luminescence inhibition; series mostly up to 57.5 µM
Summary of the method: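 Biochemical qHTS of compounds, final roughly 60 µM downward over six points, against 10 nM purified firefly luciferase using Km concentrations of substrates (10 uM D-luciferin, 10 uM ATP) in Tris acetate pH 7.5 buffer; luminescence output.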
Potency is read from the fitted curve at half-maximal effect; tags tell the direction and shape of the fitted curve.

| SMILES | Potency | activity change, negative = inhibition |
| --- | --- | --- |
| COc1ccc(OC)c(NC(=O)CC(=O)Nc2ccc3nc4n(c(=O)c3c2)CCCCC4)c1 | inconclusive: 23.9 µM [inhibitor, single point] |  |
| CSc1nc(SCCO)c2sc3nc(-c4ccco4)c4c(c3c2n1)CC(C)(C)OC4 | inconclusive: 30.1 µM [inhibitor, partial curve, poor fit] |  |
| CCOc1ccccc1/C=N/Nc1nc2c(N)ncnc2n1[C@H]1O[C@@H](CO)[C@H](O)[C@@H]1O | inconclusive: 19 µM [inhibitor, partial curve, poor fit] |  |
| NC(=S)N/N=C/c1c(O)c(Br)cc2oc3c(c12)CCCC3 | inactive |  |
| Cc1ccc(C2CCN(C(=O)c3cnn(-c4ccc(C)c(C)c4)c3C3CCN(C(=O)OC(C)(C)C)CC3)C2)cc1 (configuration not stated) | inactive |  |
| Cc1cc(N=Nc2ccc3ccccc3c2)ccc1O | active: 1.35 µM |  |
| O=S(=O)(c1ccc(F)cc1)N1CCC2(CC1)OCCO2 | inactive |  |
| C=C1c2ccccc2NC(=O)N1c1ccc(C)cc1 | inconclusive: 21.3 µM [inhibitor, partial curve, poor fit] |  |
| Cc1cc(NCCCO)n2nc(-c3cccs3)cc2n1 | inconclusive: 21.3 µM [inhibitor, partial curve, poor fit] |  |
| COc1cc(-c2nc(-c3ccc(NC(=O)c4ccc5c(c4)OCO5)cc3)no2)cc(OC)c1OC | inconclusive: 21.3 µM [inhibitor, single point] |  |
| O=C(Nc1ccccc1C(F)(F)F)N1CC=C(c2c[nH]c3ccccc23)CC1 | inactive |  |
| COc1ccc(-c2cc3nc(C)c(CCC(=O)NC(C)c4ccccc4)c(C)n3n2)c(OC)c1 (configuration not stated) | inactive |  |
| COc1ccc(-c2noc(CN(C)S(=O)(=O)c3ccc(C)cc3)n2)cc1 | inactive |  |
| COC(=O)CCC(=O)N1CCCC(CO)(Cc2ccccc2)C1 (configuration not stated) | active: 15.1 µM |  |
| COc1ccccc1Oc1cn[nH]c1-c1ccc(OCC(=O)NN)cc1O | inactive |  |
| COc1ccc(OC)c(NC(=O)Nc2cnccn2)c1 | inconclusive: 23.9 µM [inhibitor, single point] |  |
| Cc1[nH]nc(Nc2ccccc2)c1[N+](=O)[O-] | inconclusive: 30.1 µM [inhibitor, partial curve, poor fit] |  |
| CC(=O)Nc1ccc(-c2csc(Nc3ncccn3)n2)cc1 | inconclusive: 1.69 µM [inhibitor, partial curve, poor fit] |  |
| Nc1nc(NC(=O)c2cccs2)nn1-c1ccccc1 | active: 16.9 µM |  |
| O=C(O)c1cc(-c2ccc(-c3ccc(F)cc3)o2)nc2ccccc12 | active: 0.135 µM |  |
| O=C(CNC(=O)c1cccc(F)c1)N/N=C/c1ccc([N+](=O)[O-])s1 | inactive |  |
| O=C(NCCCc1ccccc1)c1cc(COc2c(F)cccc2F)on1 | inconclusive: 19 µM [inhibitor, partial curve, poor fit] |  |
| CC(=O)c1cc2c(cc1NC(=O)c1cc3nc(C(C)C)cc(C(F)(F)F)n3n1)OCO2 | inconclusive: 13.5 µM [inhibitor, partial curve, poor fit] |  |

| SMILES | Potency | activity change, negative = inhibition |
| --- | --- | --- |
| COc1cc(O)cc2cc3c(c(O)c12)C(=O)CC(C)(O)O3 (configuration not stated) | inconclusive: 37.9 µM [inhibitor, partial curve, poor fit] |  |
| Cc1nc(S/C(=C\c2ccc(-c3ccc(C(=O)O)c(Cl)c3)o2)C(=O)O)n[nH]1 | inconclusive: 26.9 µM [inhibitor, single point] |  |
| O=C1N/C(=C\c2ccc(O)cc2)C(=O)c2ccccc21 | active: 1.2 µM |  |
| CCOC(=O)c1ccccc1NC(=O)COC(=O)CC(C)(C)CC1=NS(=O)(=O)c2ccccc2N1 | inconclusive: 37.9 µM [inhibitor, partial curve, poor fit] |  |
| O=C(CSc1nnnn1-c1ccc2c(c1)OCCO2)Nc1nc2c(s1)CCCC2 | inactive |  |
| C=CCNC(=O)/C(=C\C=C\c1ccccc1)NC(=O)c1ccccc1Cl | inconclusive: 21.3 µM [inhibitor, partial curve, poor fit] |  |
| COc1ccc(CC(=O)Nc2sc3c(c2C(N)=O)CCCC3)cc1 | inactive |  |
| Cc1ccc(C(=O)OCC(=O)c2ccc(CC(=O)N3CCOCC3)s2)cc1C | active: 23.9 µM |  |
| CC(C)(C)Sc1ccc(N)nc1 | inconclusive: 23.9 µM [inhibitor, partial curve, poor fit] |  |
| C#CCOCCOCCOCCNc1nc(N2CCN(C(=O)CCCCCCCCCCNC(=O)[C@H](CCCCN)n3cc(CCO)nn3)CC2)nc(N2CCN(C(=O)CCCCCCCCCCNC(=O)[C@H](CCCN=C(N)N)n3cc(C[C@@H](C)CC)nn3)CC2)n1 | inconclusive: 23.9 µM [inhibitor, single point] |  |
| COc1ccc(/C=C2\SC(=S)N(NC(=O)c3ccncc3)C2=O)cc1OC | inconclusive: 23.9 µM [inhibitor, partial curve] |  |
| Cn1c(=NC(=O)c2cnccn2)sc2ccccc21 | active: 4.78 µM |  |
| O=C(CCCOc1ccc(Cl)cc1Cl)N/N=C/c1ccco1 | inconclusive: 23.9 µM [inhibitor, partial curve, poor fit] |  |
| c1ccc(-c2cc3c(NCC4COc5ccccc5O4)ncnc3s2)cc1 (configuration not stated) | inconclusive: 26.9 µM [inhibitor, partial curve, poor fit] |  |
| O=C(O)CCc1ccc(-c2ccccc2)n1-c1ccc(C(=O)O)cc1 | inconclusive: 15.1 µM [inhibitor, partial curve] |  |
| CC(=O)Nc1cccc(NC(=O)CSc2ccc(-c3sc(-c4ccccc4)nc3C)nn2)c1 | inconclusive: 9.53 µM [inhibitor, partial curve] |  |
| O=C1c2ccccc2C(=O)N1CCN1CCc2ccccc21 | active: 13.5 µM |  |
| COc1ccc(-c2c[n+](CC(=O)c3cccs3)c3n2CCC3)cc1 | inactive |  |
| CC1=CSC2=NC(=O)/C(=C/c3cccc(OC(=O)c4ccco4)c3)C(=N)N12 | inconclusive: 23.9 µM [inhibitor, single point] |  |
| N#C/C(=C\c1c(Cl)cccc1Cl)c1nc2ccccc2[nH]1 | inconclusive: 26.9 µM [inhibitor, partial curve] |  |
| Cc1ccc(Cl)cc1NC(=O)Cn1c(=O)n(C(C)C)c(=O)c2oc3ccccc3c21 | inactive |  |
| CC(C)CSC1=NSC2=NC(=O)/C(=C\c3coc4ccccc4c3=O)C(=N)N12 | active: 16.9 µM |  |
| Cc1csc(SCC(=O)Nc2sccc2C(N)=O)n1 | inconclusive: 26.9 µM [inhibitor, single point] |  |

| SMILES | Potency | activity change, negative = inhibition |
| --- | --- | --- |
| O=C(Nc1ccc2c(c1)OCCO2)c1ccc(CN2CCOCC2)cc1 | active: 10.7 µM |  |
| CCOC(=O)c1cnc(SCc2nc(N)nc(Nc3ccccc3)n2)nc1N | inconclusive: 7.57 µM [inhibitor, partial curve, poor fit] |  |
| Fc1ccccc1NC(=S)N1CCC(c2ccccc2)C1 (configuration not stated) | inconclusive: 30.1 µM [inhibitor, single point] |  |
| NS(=O)(=O)c1ccc(N/N=C/c2ccccc2Br)cc1 | inconclusive: 30.1 µM [inhibitor, partial curve, poor fit] |  |
| Cc1ccc(/C=C2/Sc3ccccc3N(CC(=O)NCC3CCCO3)C2=O)cc1 (configuration not stated) | inconclusive: 26.9 µM [inhibitor, partial curve] |  |
| CCCC(=O)Nc1cccc(-c2cn3c(C)csc3n2)c1 | inconclusive: 37.9 µM [inhibitor, partial curve, poor fit] |  |
| COc1ccc(C(Nc2ccccn2)c2oc(CO)cc(=O)c2O)cc1 (configuration not stated) | inconclusive: 26.9 µM [inhibitor, single point] |  |
| CC(C)c1ccc(NC(=O)[C@H]2CSCN2C(=O)[C@@H]2CCC(=O)N2)cc1 | inconclusive: 21.3 µM [inhibitor, single point] |  |
| Cc1ccc(N(CC(=O)NC(C)(C)C)C(=O)CNC(=O)c2cccs2)cc1C | inactive |  |
| COc1cc(C2Nc3ccccc3-c3nnc(SCc4ccc(C)cc4)nc3O2)cc(OC)c1O (configuration not stated) | inconclusive: 23.9 µM [inhibitor, partial curve] |  |
| CCCCN(C)S(=O)(=O)c1ccc(C(=O)Nc2ccc(-c3nc4ccc(C)cc4s3)cc2)cc1 | inconclusive: 23.9 µM [inhibitor, partial curve, poor fit] |  |
| Cc1cc(NC(=O)c2cccn2-c2nnc(N3CCCCC3)s2)ccc1Br | inconclusive: 37.9 µM [inhibitor, partial curve, poor fit] |  |
| Cc1ccnc(-n2c(C)cc(/C=N/NC(=O)COc3cccc4cccnc34)c2C)c1 | active: 13.5 µM |  |
| O=C(Nc1cccs1)Nc1ccccc1Br | inconclusive: 15.1 µM [inhibitor, partial curve] |  |
| CCc1ccc(-c2cc3c(=O)n(CC(=O)NCCCN4CCN(CC)CC4)nc(C)n3n2)cc1 | inconclusive: 19 µM [inhibitor, partial curve] |  |
| Cc1ccc(C(=O)Nc2ccc3oc(-c4ccccc4C)nc3c2)cc1 | inconclusive: 10.7 µM [inhibitor, partial curve] |  |
| CNC(=O)n1ccc(C(=O)N2CCCCC2)n1 |  | inactive: 2.3% [at 2.3 µM] |
| COc1ccc2oc(C(=O)N(C)Cc3ccc4c(c3)OCCO4)c(C)c2c1 | inconclusive: 37.9 µM [inhibitor, partial curve, poor fit] |  |
| COc1ccc(CSc2nnnn2-c2ccc(C(=O)O)cc2)cc1 | inactive |  |
| CCC1CCc2c(sc(NC(=O)c3cccnc3)c2C(N)=O)C1 (configuration not stated) | inconclusive: 2.39 µM [inhibitor, full curve] |  |
| CCSc1nncn1/N=C/c1ccc(OC)c(OC)c1 | inconclusive: 37.9 µM [inhibitor, single point] |  |
